# Test results taken from the supplement of paper PMC12217912.
# The other results are listed elsewhere or left out. Sequences were assembled here from the parent chain. Inactive controls read about 0.05.
# B1: TEV protease; numbered along this chain (parent)
# chain: MGESLFKGPRDYNPISSSICHLTNESDGHTTSLYGIGFGPFIITNKHLFRRNNGTLVVQSLHGVFKVKDTTTLQQHLVDGRDMIIIRMPKDFPPFPQKLKFREPQREERICLVTTNFQTKSMSSMVSDTSCTFPSGDGIFWKHWIQTKDGQCGSPLVSTRDGFIVGIHSASNFTNTNNYFTSVPKNFMELLTNQEAQQWVSGWRLNADSVLWGGHKVFMVKPEEPFQPVKEATQL
# Variants of: B1
# Test: raw area under fraction-flipped curve 0-4 h after induction (AUC4h, not background-subtracted), DNA-recorder readout of cleavage of the substrate (dimensionless); higher = more cleavage of the substrate by the protease variant
# Details: temperature: 34 °C; time window: 0-4 h after rhamnose induction
# Protocol: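 In vivo DNA recorder in E. coli TOP10(DE3) ΔrhaA at 34 °C. Each TEVp single-site mutant (parent TEVp 0) is paired with a single-site variant of the 7-mer TEVs (canonical ENLYFQ|S). The substrate sits between flexible linkers in a Bxb1-sfGFP-TEVs-SsrA fusion, so cleavage stabilises Bxb1 and speeds flipping of a recombination array, read by NGS. The value is the raw area under the fraction-flipped curve over 0-4 h after rhamnose induction (AUC4h), with ≥20 reads per time point. It is not background-subtracted; inactive controls average about 0.047.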
# 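Also: Bxb1 expression induced with 0.2% (w/v) L-rhamnose at OD600 near 0.5, cultures sampled hourly, flipped fraction per protease–substrate barcode pair counted by paired-end Illumina sequencing.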
variant,measurement,value
MGESLFKGPRDYNPISSSICHLTNESDGHTTSLYGIGFGPFIITNKHLFRRNNGTLVVQSLHGVFKVKDTTTLQQHLVDGRDMIIIRMPKDFPPFPQKLKFREPQREERICLVTTNFQTKSMSSMVSDTSCTFPSGDGIFWKHWIQTKDGQCGSPLVSTRDGFIVGIHSASNFTNTNNYFTSVHKNFMELLTNQEAQQWVSGWRLNADSVLWGGHKVFMVKPEEPFQPVKEATQL [P184H],area with substrate EALYFQS,0.0788
same,area with substrate EELYFQS,0.0948
same,area with substrate EGLYFQS,0.0668
same,area with substrate EHLYFQS,0.0577
same,area with substrate EILYFQS,0.0826
same,area with substrate EKLYFQS,0.0847
same,area with substrate ELLYFQS,0.0614
same,area with substrate EQLYFQS,0.0918
same,area with substrate ESLYFQS,0.0736
same,area with substrate ETLYFQS,0.056
same,area with substrate EVLYFQS,0.0719
MGESLFKGPRDYNPISSSICHLTNESDGHTTSLYGIGFGPFIITNKHLFRRNNGTLVVQSLHGVFKVKDTTTLQQHLVDGRDMIIIRMPKDFPPFPQKLKFREPQREERICLVTTNFQTKSMSSMVSDTSCTFPSGDGIFWKHWIQTKDGQCGSPLVSTRDGFIVGIHSASNFTNTNNYFTSVPKNFMELLTNQEAQQWVSGWRLNADSVLWGGHKVFMVKPEEPFQPVKESTQL [A232S],area with substrate EALYFQS,0.147
same,area with substrate EGLYFQS,0.0881
same,area with substrate EILYFQS,0.106
same,area with substrate ELLYFQS,0.128
same,area with substrate EQLYFQS,0.153
same,area with substrate ESLYFQS,0.118
same,area with substrate EYLYFQS,0.123
MGESLFKGPRDYNPISSSICHLTNESDGHTTSLYGIGFGPFIITNKHLFRRNNGTLVVQSLHGVFKVKDTTTLQQHLVDGRDMIIIRMPKDFPPFPQKLKFREPQREERICLVTTNFQTKSMSSMVSDTSCTFPSGDGIFWKHWIQTKDGQCGSPLVSTRDGFIVGIHSASNFTNTNNYFTSVPKNFMELLTNQEAQQWHSGWRLNADSVLWGGHKVFMVKPEEPFQPVKEATQL [V200H],area with substrate EALYFQS,0.0733
same,area with substrate ECLYFQS,0.0601
same,area with substrate EDLYFQS,0.0846
same,area with substrate EELYFQS,0.103
same,area with substrate EFLYFQS,0.0866
same,area with substrate EHLYFQS,0.0724
same,area with substrate EILYFQS,0.0747
same,area with substrate EKLYFQS,0.0703
same,area with substrate ELLYFQS,0.0669
same,area with substrate EPLYFQS,0.0932
same,area with substrate EQLYFQS,0.0826
same,area with substrate ERLYFQS,0.0693
same,area with substrate ESLYFQS,0.073
same,area with substrate EVLYFQS,0.0711
same,area with substrate EYLYFQS,0.0649
MGESLFKGPRDYNPICSSICHLTNESDGHTTSLYGIGFGPFIITNKHLFRRNNGTLVVQSLHGVFKVKDTTTLQQHLVDGRDMIIIRMPKDFPPFPQKLKFREPQREERICLVTTNFQTKSMSSMVSDTSCTFPSGDGIFWKHWIQTKDGQCGSPLVSTRDGFIVGIHSASNFTNTNNYFTSVPKNFMELLTNQEAQQWVSGWRLNADSVLWGGHKVFMVKPEEPFQPVKEATQL [S16C],area with substrate EALYFQS,0.113
same,area with substrate ECLYFQS,0.123
same,area with substrate EDLYFQS,0.111
same,area with substrate EELYFQS,0.141
same,area with substrate EGLYFQS,0.111
same,area with substrate EILYFQS,0.094
same,area with substrate EKLYFQS,0.118
same,area with substrate ELLYFQS,0.1
same,area with substrate EMLYFQS,0.114
same,area with substrate EPLYFQS,0.131
same,area with substrate EQLYFQS,0.112
same,area with substrate ERLYFQS,0.0942
same,area with substrate ESLYFQS,0.112
same,area with substrate ETLYFQS,0.144
same,area with substrate EVLYFQS,0.0937
same,area with substrate EWLYFQS,0.109
same,area with substrate EYLYFQS,0.0876
MGESLFKGPRDYNPISSSICHLTNESDGHTTSLYGIGFGPFIITNKHVFRRNNGTLVVQSLHGVFKVKDTTTLQQHLVDGRDMIIIRMPKDFPPFPQKLKFREPQREERICLVTTNFQTKSMSSMVSDTSCTFPSGDGIFWKHWIQTKDGQCGSPLVSTRDGFIVGIHSASNFTNTNNYFTSVPKNFMELLTNQEAQQWVSGWRLNADSVLWGGHKVFMVKPEEPFQPVKEATQL [L48V],area with substrate EALYFQS,0.0732
same,area with substrate ECLYFQS,0.0635
same,area with substrate EDLYFQS,0.0798
same,area with substrate EELYFQS,0.066
same,area with substrate EFLYFQS,0.0651
same,area with substrate EGLYFQS,0.0601
same,area with substrate EHLYFQS,0.0558
same,area with substrate EILYFQS,0.0565
same,area with substrate EKLYFQS,0.0753
same,area with substrate EMLYFQS,0.0623
same,area with substrate EPLYFQS,0.0821
same,area with substrate EQLYFQS,0.0712
same,area with substrate ERLYFQS,0.0741
same,area with substrate ESLYFQS,0.0719
same,area with substrate ETLYFQS,0.0664
same,area with substrate EVLYFQS,0.0679
same,area with substrate EYLYFQS,0.0697
MGESLFKGPRDYNPISSSICHLTWESDGHTTSLYGIGFGPFIITNKHLFRRNNGTLVVQSLHGVFKVKDTTTLQQHLVDGRDMIIIRMPKDFPPFPQKLKFREPQREERICLVTTNFQTKSMSSMVSDTSCTFPSGDGIFWKHWIQTKDGQCGSPLVSTRDGFIVGIHSASNFTNTNNYFTSVPKNFMELLTNQEAQQWVSGWRLNADSVLWGGHKVFMVKPEEPFQPVKEATQL [N24W],area with substrate EALYFQS,0.0869
same,area with substrate ECLYFQS,0.0781
same,area with substrate EDLYFQS,0.0686
same,area with substrate EELYFQS,0.0802
same,area with substrate EFLYFQS,0.0828
same,area with substrate EGLYFQS,0.063
same,area with substrate EHLYFQS,0.0772
same,area with substrate EILYFQS,0.079
same,area with substrate ELLYFQS,0.0559
same,area with substrate EMLYFQS,0.0677
same,area with substrate EPLYFQS,0.0885
same,area with substrate EQLYFQS,0.101
same,area with substrate ERLYFQS,0.0807
same,area with substrate ESLYFQS,0.143
same,area with substrate EVLYFQS,0.0768
same,area with substrate EYLYFQS,0.0977
MGESLFKGPRDYNPISSCICHLTNESDGHTTSLYGIGFGPFIITNKHLFRRNNGTLVVQSLHGVFKVKDTTTLQQHLVDGRDMIIIRMPKDFPPFPQKLKFREPQREERICLVTTNFQTKSMSSMVSDTSCTFPSGDGIFWKHWIQTKDGQCGSPLVSTRDGFIVGIHSASNFTNTNNYFTSVPKNFMELLTNQEAQQWVSGWRLNADSVLWGGHKVFMVKPEEPFQPVKEATQL [S18C],area with substrate EALYFQS,0.129
same,area with substrate ECLYFQS,0.0926
same,area with substrate EDLYFQS,0.127
same,area with substrate EELYFQS,0.186
same,area with substrate EFLYFQS,0.0629
same,area with substrate EHLYFQS,0.086
same,area with substrate EILYFQS,0.147
same,area with substrate EKLYFQS,0.105
same,area with substrate ELLYFQS,0.107
same,area with substrate EMLYFQS,0.12
same,area with substrate EPLYFQS,0.103
same,area with substrate EQLYFQS,0.126
same,area with substrate ERLYFQS,0.13
same,area with substrate ESLYFQS,0.104
same,area with substrate EVLYFQS,0.0805
same,area with substrate EWLYFQS,0.104
same,area with substrate EYLYFQS,0.116
MGESLFKGPRDYNPISSSICHLTNESDGHTTSLYGIGFGPFIITNKHLFRRNNGTLVVQSLHGVFKVKDTTTLQQHLVDGRDMIIIRMPKDFPPFPQKLKFREPQREERICLVTTNFQTKSMSSMVSDTSCTFPSGDGIFWKHWIQTKDGQLGSPLVSTRDGFIVGIHSASNFTNTNNYFTSVPKNFMELLTNQEAQQWVSGWRLNADSVLWGGHKVFMVKPEEPFQPVKEATQL [C152L],area with substrate EALYFQS,0.0491
same,area with substrate ECLYFQS,0.0548
same,area with substrate EDLYFQS,0.071
same,area with substrate EELYFQS,0.0754
same,area with substrate EHLYFQS,0.055
same,area with substrate EILYFQS,0.0509
same,area with substrate EKLYFQS,0.0824
same,area with substrate EMLYFQS,0.0698
same,area with substrate EQLYFQS,0.0748
same,area with substrate ERLYFQS,0.0487
same,area with substrate ESLYFQS,0.0582
same,area with substrate ETLYFQS,0.0634
same,area with substrate EVLYFQS,0.0616
same,area with substrate EWLYFQS,0.0652
MGESLFKGPRDYNPISSSICHLTNESDGHTTSLYGIGFGPFIITNKHLFRRNNGTLVVQSLHGVFKVKDTTTLQQHLVDGRDMIIIRMPKDFPPFPQKLKFREPQREERICLVTTNFQTKSMSSMVSDTSCTFPSGDGIFWKHWIQTKDGQCGSPLVSTRDGFIVGIHSASNFTNTNNYFTSVPKNFMELLTNQEAQQWVSGARLNADSVLWGGHKVFMVKPEEPFQPVKEATQL [W203A],area with substrate EALYFQS,0.146
same,area with substrate ECLYFQS,0.0615
same,area with substrate EDLYFQS,0.0894
same,area with substrate EELYFQS,0.0924
same,area with substrate EFLYFQS,0.0669
same,area with substrate EGLYFQS,0.0613
same,area with substrate EILYFQS,0.0585
same,area with substrate ELLYFQS,0.0591
same,area with substrate EMLYFQS,0.0645
same,area with substrate EPLYFQS,0.0935
same,area with substrate EQLYFQS,0.0745
same,area with substrate ERLYFQS,0.0508
same,area with substrate ESLYFQS,0.0641
same,area with substrate EVLYFQS,0.0574
same,area with substrate EWLYFQS,0.0606
